The campaign covered roughly 340,000 compounds. About 12,000 (3.5%) were called active. Inconclusive results, whose numbers are uncertain, are shown with a selection of clear calls. Calls come from the whole dose curve; as a rule, active = well fitted inhibition curve with a large enough effect; inconclusive = small, poorly fitted or top-dose-only effect, or another doubt; inactive = no such curve, though single readings can be large or run the other way. Potencies of inconclusive entries are left out as doubtful fits.
Assay: qHTS Assay for Inhibitors of Hepatitis C Virus (HCV)
Conditions: Huh7.5.1 HCVcc-Cre (HCVcc is cell-culture hepatitis C virus) infection, luciferase reporter, 44 h; activity change, negative = inhibition: at 41.8 µM (top of the series) unless noted
Outline: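 HCVcc-Cre virus at an moi near 0.5 was added right after compound to cells cultured 4 h from seeding (1,000 cells/well). Luciferase activity was determined 44 h later, 15 min after substrate addition at RT.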
% is set by controls: 0 for no effect and ±100 for the full control effect; potency is the fitted concentration of half-maximal effect; tags give direction and shape of the fitted curve.

Q: With `O=c1c2ccccc2[nH]c2ccc(F)cc12` as the compound, how does the Potency read?
A: inconclusive [inhibitor, single point]

Q: For `CN1CCN(CC(=O)Nc2ccc(Cl)cc2Cl)CC1`, which Potency is on record?
A: inconclusive [inhibitor, full curve]

Q: Which “activity change, negative = inhibition” value does the source give for `N#C/C(=C\c1ccncc1)c1nc2ccccc2o1` here?
A: inactive: 8.88%

Q: For `O=C(Nc1ccc(Cl)cc1)Nc1nnc(CSCc2ccc(Cl)cc2)s1`, which Potency is on record?
A: active: 5.01 µM

Q: Which “activity change, negative = inhibition” value does the source give for `COc1ccc(C=O)cc1O` here?
A: inactive: 26.1%

Q: For `COc1cc(NC(=O)C2CC(c3ccc(Cl)cc3)=NO2)cc(OC)c1OC` (stereo not given), which Potency is on record?
A: inconclusive [inhibitor, single point]

Q: Which Potency does the source give for `COc1cccc(NC(=O)c2ccc(N3C(=O)C4CC=CCC4C3=O)cc2)c1` (stereo not given) here?
A: inconclusive [inhibitor, partial curve]

Q: For `CC(=O)Nc1ccc(S(=O)(=O)N(Cc2ccccc2)C(C)C)cc1`, which Potency is on record?
A: inconclusive [inhibitor, single point]

Q: For `CC(=O)N1CC(C)Sc2ccc(S(=O)(=O)NCCc3cccc(C)c3)cc21` (stereo not given), which Potency is on record?
A: inconclusive [inhibitor, partial curve]

Q: With `CCC(=O)c1cc(Br)ccc1OCC(=O)N1CCN(S(=O)(=O)c2ccccc2)CC1` as the compound, how does the Potency read?
A: inconclusive [inhibitor, single point]

Q: With `CCOC(=O)N1CCC(NCc2c(C(=O)N(C)Cc3ccccc3)nc3ccccn23)CC1` as the compound, how does the “activity change, negative = inhibition” value read?
A: inactive: 5.09%

Q: Which Potency does the source give for `c1ccc(CCc2nc(-c3cccnc3)no2)cc1` here?
A: active: 11.2 µM

Q: Which Potency does the source give for `COC[C@@H]1NS(=O)(=O)c2ccc(Br)cc2O[C@H]1c1ccccc1` here?
A: inconclusive [inhibitor, partial curve, poor fit]

Q: Which Potency does the source give for `O=C(Cn1cnc2c(cnn2-c2ccccc2)c1=O)Nc1cc(S(=O)(=O)N2CCOCC2)ccc1Cl` here?
A: inconclusive [inhibitor, single point]

Q: For `CSc1ccccc1OCc1cc(C(=O)N2CCc3c(Cl)cccc3C2)no1`, which Potency is on record?
A: active: 12.6 µM

Q: For `O=C1NCCNC1c1ccccc1` (stereo not given), which “activity change, negative = inhibition” value is on record?
A: inactive: 0.32%

Q: For `Cn1cnnc1SCc1ccc(C(=O)N=Nc2c(O)n(Cc3ccc(Cl)cc3)c3ccccc23)cc1`, which Potency is on record?
A: active: 10 µM

Q: With `CC(C)(C)c1nc(N2CCN(C(=O)c3ccco3)CC2)c2nnn(Cc3ccccc3)c2n1` as the compound, how does the Potency read?
A: inconclusive [inhibitor, partial curve]

Q: With `COc1ccc(Nc2nc(N(C)c3ccccc3)nc(N)c2[N+](=O)[O-])cc1` as the compound, how does the Potency read?
A: inconclusive [inhibitor, partial curve]

Q: With `Cc1ccccc1NC(=O)NC1(C(=O)N2CCC(O)CC2)CCCCC1` as the compound, how does the “activity change, negative = inhibition” value read?
A: inactive: 16.2%

Q: Which “activity change, negative = inhibition” value does the source give for `COc1ccc(OC)c(/C=C2\SC(=S)N(Cc3cccnc3)C2=O)c1` here?
A: inactive: -22.2%

Q: Which activity change, negative = inhibition does the source give for `CCC1=C(OC(=O)N(CC)CC)N2C(=O)OC(=NCc3ccccc3)[C@]2(C)[C@H]2C1=CC[C@H]1C(=O)NC(=O)[C@H]12` here?
A: inactive: 57% [at 8.37 µM]

Q: For `Cc1ccccc1NC(=O)c1ccc(CN2CCC(Cc3ccccc3)CC2)cc1`, which Potency is on record?
A: inconclusive [inhibitor, partial curve]

Q: With `CC(C)Cn1c(N)c(C(=O)COC(=O)C2CC(=O)N(Cc3ccccc3Cl)C2)c(=O)n(C)c1=O` (stereo not given) as the compound, how does the Potency read?
A: inconclusive [inhibitor, single point]

Q: Which Potency does the source give for `CC(C)CC(=O)Nc1ccccc1N1CCN(c2ccc(F)cc2)CC1` here?
A: inconclusive [inhibitor, single point]

Q: Which “activity change, negative = inhibition” value does the source give for `O=C(Cc1ccc([N+](=O)[O-])cc1)NCc1ccc2c(c1)OCO2` here?
A: inactive: -5.1%

Q: Which Potency does the source give for `Cc1cccc(CN2CCCC(C(=O)c3cccc(OC(C)C)c3)C2)n1` (stereo not given) here?
A: inconclusive [inhibitor, single point]

Q: For `CCCC(=O)Nc1ccc(C)c(O)c1`, which Potency is on record?
A: inconclusive [inhibitor, partial curve, poor fit]

Q: Which Potency does the source give for `NC(=S)N/N=C/c1ccc(C23CC4CC(CC(C4)C2)C3)cc1` here?
A: inconclusive [inhibitor, single point]

Q: With `CCN(CC(=O)NCc1cccs1)CC(=O)Nc1c(Cl)ccc(C)c1Cl` as the compound, how does the Potency read?
A: inconclusive [inhibitor, single point]

Q: For `O=C(COC(=O)c1cccc(Cl)c1)Nc1ccc2[nH]c(=O)[nH]c2c1`, which Potency is on record?
A: inconclusive [inhibitor, full curve]

Q: Which Potency does the source give for `CCCCCCCCCCCCCCCC[N+](C)(C)CCN(Cc1ccc(OC)cc1)c1ncccn1` here?
A: active: 2.82 µM

Q: With `CC(=O)CC(c1ccccc1)S(=O)(=O)c1ccc([N+](=O)[O-])cc1` (stereo not given) as the compound, how does the “activity change, negative = inhibition” value read?
A: inactive: 8.39%

Q: For `CCCn1c2ccccc2c2nnc(SCC(=O)Nc3nnc(CC(=O)OCC)s3)nc21`, which Potency is on record?
A: inconclusive [inhibitor, partial curve, poor fit]

Q: For `Cc1cc(-c2nn(-c3ccccc3)cc2/C=C2\SC(N)=NC2=O)ccc1OC(C)C`, which Potency is on record?
A: inconclusive [inhibitor, partial curve]

Q: With `CCSc1nsc(NC(=O)Nc2ccc(F)cc2F)n1` as the compound, how does the Potency read?
A: inconclusive [inhibitor, single point]

Q: Which “activity change, negative = inhibition” value does the source give for `CCCCOc1ccc(C(=O)Oc2cccnc2)cc1` here?
A: inactive: 1.07%

Q: For `O=C(CSc1nc2[nH]ncc2c(=O)n1-c1ccccc1Br)NCc1ccco1`, which “activity change, negative = inhibition” value is on record?
A: inactive: 13.9%

Q: Which Potency does the source give for `CCOc1ccc(-c2cc(C(=O)NCCCN3CCOCC3)c3ccccc3n2)cc1` here?
A: inconclusive [inhibitor, single point]

Q: Which Potency does the source give for `CCn1c(/C=C/c2cc(Br)ccc2O)nc2ccccc2c1=O` here?
A: inconclusive [inhibitor, single point]

Q: With `C/C(=N\NC(=O)c1cccc([N+](=O)[O-])c1)c1cccs1` as the compound, how does the “activity change, negative = inhibition” value read?
A: inactive: 7.1%

Q: For `CC(=O)Nc1sc(/C(C#N)=C\c2cccc(Cl)c2)nc1-c1ccc(C)cc1`, which Potency is on record?
A: inconclusive [inhibitor, single point]

Q: For `Cc1ccc(Nc2nc(N)nc(CN3CCN(c4ccccc4F)CC3)n2)cc1`, which Potency is on record?
A: inconclusive [inhibitor, single point]

Q: With `COc1ccc(NS(=O)(=O)c2ccc3oc4ccccc4c3c2)cn1` as the compound, how does the Potency read?
A: inconclusive [inhibitor, single point]

Q: With `OCCCNc1c2c(nc3cc(-c4ccc(Cl)cc4)nn13)CCC2` as the compound, how does the Potency read?
A: inconclusive [inhibitor, partial curve]
